# Test results: article PMC4336329 (PLoS ONE, 2015)
# Among all 310,000 compounds or so, about 2,200 (0.71%) showed an effect of 50% or more. The effect is printed as a negative number. Some of the results follow.
# Molecular target: human ether-à-go-go-related gene (hERG) potassium channel (human, UniProt Q12809)
# Assay: primary screen, population patch clamp on CHO cells stably expressing hERG
# human ether-à-go-go-related gene (hERG) potassium channel, sequence (Q12809 whole entry, looked up): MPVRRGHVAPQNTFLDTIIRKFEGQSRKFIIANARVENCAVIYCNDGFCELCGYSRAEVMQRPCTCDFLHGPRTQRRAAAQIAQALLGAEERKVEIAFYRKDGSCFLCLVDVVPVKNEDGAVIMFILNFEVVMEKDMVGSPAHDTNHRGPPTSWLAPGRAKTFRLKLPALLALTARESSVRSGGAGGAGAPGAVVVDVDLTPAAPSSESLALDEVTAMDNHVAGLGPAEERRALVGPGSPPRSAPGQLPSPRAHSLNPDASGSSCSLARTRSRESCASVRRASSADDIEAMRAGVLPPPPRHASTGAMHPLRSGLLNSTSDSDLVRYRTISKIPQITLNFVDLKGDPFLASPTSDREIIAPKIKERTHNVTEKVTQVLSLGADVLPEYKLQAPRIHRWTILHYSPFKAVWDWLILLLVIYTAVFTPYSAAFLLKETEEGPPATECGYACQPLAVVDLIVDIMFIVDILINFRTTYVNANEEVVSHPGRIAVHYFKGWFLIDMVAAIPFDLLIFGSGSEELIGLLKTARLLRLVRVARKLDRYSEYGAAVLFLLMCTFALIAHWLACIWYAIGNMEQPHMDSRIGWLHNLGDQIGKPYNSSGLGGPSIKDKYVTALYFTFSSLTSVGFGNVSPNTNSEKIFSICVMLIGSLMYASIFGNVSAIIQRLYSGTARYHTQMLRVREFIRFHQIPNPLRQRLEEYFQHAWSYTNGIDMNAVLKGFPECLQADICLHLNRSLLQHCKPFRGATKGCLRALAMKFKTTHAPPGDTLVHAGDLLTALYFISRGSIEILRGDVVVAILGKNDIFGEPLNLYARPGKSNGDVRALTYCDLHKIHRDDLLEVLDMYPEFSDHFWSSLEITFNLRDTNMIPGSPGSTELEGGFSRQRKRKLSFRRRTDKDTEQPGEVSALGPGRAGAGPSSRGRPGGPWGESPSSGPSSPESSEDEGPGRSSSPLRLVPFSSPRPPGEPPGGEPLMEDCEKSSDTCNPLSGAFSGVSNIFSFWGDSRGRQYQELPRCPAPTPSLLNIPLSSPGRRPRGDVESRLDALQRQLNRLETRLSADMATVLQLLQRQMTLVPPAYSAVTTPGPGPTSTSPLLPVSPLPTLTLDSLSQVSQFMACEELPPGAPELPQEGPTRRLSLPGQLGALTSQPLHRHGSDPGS
row,SMILES,"hERG current change (%, negative = inhibition) at 1uM"
1,O=C(NCCCN1CCOCC1)C(=O)NCC1CCCO1 (centres unmarked),12%
2,O=C(/C=C/c1cccc([N+](=O)[O-])c1)NCCN1C(=O)S/C(=C\c2cccnc2)C1=O,0.856%
3,COc1ccccc1NC(=S)NCC1CCC(CNC(=S)Nc2ccccc2OC)CC1 (centres unmarked),8.73%
4,COc1ccc(-c2csc(NC3CCCCC3)n2)c(OC)c1,11.2%
5,Cc1nc2ccccn2c1P(=Nc1ccccc1)(N(C)C)N(C)C,-6.57%
6,N#Cc1nc(COc2ccccc2Cl)oc1NCc1ccc(F)cc1,6.47%
7,O=C(NCCCn1ccnc1)C1CCCN(S(=O)(=O)c2cc(Cl)ccc2Cl)C1 (centres unmarked),-6.1%
8,CCC1Sc2ccc(S(=O)(=O)CCC(=O)NCc3ccco3)cc2NC1=O (centres unmarked),1.69%
9,OC[C@H]1OC(O)[C@H](O)[C@@H]1O (some centres unmarked),-47.4%
10,CCCn1c(SCC(=O)C(C)(C)C)nc2ccccc21.Cl,5.49%
11,CCOC(=O)[C@@H]1[C@H]2COc3cc(OC)ccc3[C@H]2N2C(=O)N(c3cccc(Cl)c3)C(=O)[C@]12C,14.9%
12,Cl.Fc1ccc(CCNCc2cccc(Cl)c2)cc1,7.69%
13,O=S(=O)(c1cccc(F)c1)N1CCc2sccc2C1c1ccc(OC(F)(F)F)cc1 (centres unmarked),14.5%
14,COc1cc(OC)cc(-c2cc3nc(C)c(CCC(=O)Nc4nc(C)cs4)c(C)n3n2)c1,6.38%
15,Nc1ccc(S(=O)(=O)Nc2nccc(/C=C/c3cccc(Br)c3)n2)cc1,12.8%
16,COc1cccc(CC(NC(C)=O)C(=O)NC2CCN(S(=O)(=O)c3cccc4ccccc34)CC2)c1 (centres unmarked),12.6%
17,CN(C)C(CNC(=O)c1cc(S(=O)(=O)N(C)c2ccc(F)cc2)ccc1Cl)c1ccco1 (centres unmarked),-8.47%
18,O=C1CC(c2ccccc2)CC(O)=C1C=NC1CCCC1 (centres unmarked),8.63%
19,COc1ccc(OC)c(CNC(=O)C2CCN(S(=O)(=O)N3CCCC3)CC2)c1,4.03%
20,COc1ccc(NC(=O)c2cc3ccccc3cc2OC)cc1OC,16%
21,CCN(c1ccccc1)S(=O)(=O)c1cccc(C(=O)NCCN2CCOCC2)c1,3.13%
22,O=C(NCCCN1CCCCC1)C1CCCN(c2ncnc3c2nc2n3CCCCC2)C1 (centres unmarked),12.6%
23,Cn1nc(NC(=O)CC(C)(C)CC(=O)O)c2ccccc21,21.6%
24,CN(c1ccccc1)S(=O)(=O)c1cccc(C(=O)OCC(=O)NCc2ccco2)c1,5.35%
25,Cc1cccc(CCNC(=O)c2cccc(N3CCCC3=O)c2)c1,11.9%
26,CC(=NCc1ccco1)c1c(O)n(C)c(=O)n(C)c1=O,-15.4%
27,CCOc1ccccc1N(C)C(=O)Cn1ncc2c([nH]c3ccc(C)cc32)c1=O,18.8%

row,SMILES,"hERG current change (%, negative = inhibition) at 1uM"
1,O=C(Cn1nnc(-c2ccccc2)n1)NNC(=O)c1ccco1,9.15%
2,COc1ccc2[nH]cc(CCNC(=S)NC3CCCC3)c2c1,9.4%
3,OC(c1cccc(OCc2ccccc2)c1)c1nnc(-c2ccccc2)o1 (centres unmarked),7.58%
4,CCC1=C(OC(=O)N(CC)CC)N2C(=O)OC(=NCCc3c[nH]c4ccccc34)[C@]2(C)[C@H]2C1=CC[C@H]1C(=O)N(CC)C(=O)[C@H]12,4.26%
5,Oc1ccc(/C=N/Nc2nn3cnnc3c3ccccc23)cc1,14.8%
6,CN(CCOc1ccccc1)CC(O)COc1ccccc1 (centres unmarked),10.3%
7,CC[C@H](C)[C@@H]1NC(=O)c2cc([N+](=O)[O-])cc(I)c2NCC[C@@H](C(N)=O)NC(=O)[C@H](CCCN=C(N)N)NC1=O,8.21%
8,Cc1ccc(OCC(=O)Nc2nnc(S(=O)(=O)N3CCCCCC3)s2)cc1,7.4%
9,Cc1ccc(NC(=O)C2CCN(S(=O)(=O)c3ccc(F)cc3)CC2)cc1,0.43%
10,CN(C(=O)c1cccc(S(=O)(=O)N2CCCCC2)c1)C1CCS(=O)(=O)C1 (centres unmarked),5.43%
11,COc1ccc2[nH]c3c(c2c1)CCN1C(=O)N([C@@H](C)C(=O)NC2CCN(Cc4ccccc4)CC2)C(=O)[C@]31C,-10.2%
12,O=C(CCSc1ccccc1Cl)NNC(=O)c1ccncc1,6.68%
13,Fc1ccccc1COc1ccccc1/C=N/Nc1nc(N2CCCC2)nc(N2CCCC2)n1,7.76%
14,COCCCNc1ncnc2c1cnn2-c1ccc(C)cc1C,8.51%
15,CCOc1ccc(-n2c(-c3ccoc3)nc3ccccc3c2=O)cc1,-1.56%
16,CCc1nnc(NS(=O)(=O)c2ccc(NCc3cc(Cl)cc(Cl)c3O)cc2)s1,-9.25%
17,COC(CNC(=O)c1ccc2c(c1)nc(C)n2-c1cccc(F)c1)OC,4.23%
18,COc1ccccc1N1CCN(/N=C/c2cc(OC)c(OC)c(OC)c2)CC1,11.3%
19,COc1ccccc1C(CC(=O)N1CCCC1)c1ccc2c(c1)OCO2 (centres unmarked),10.8%
20,N#Cc1ccc(N2CCCNCC2)nc1,-90.9%
21,Cc1cn2c(N)c(/C=C3\C=Nc4ccccc43)c(=O)nc2s1,4.91%
22,CN1N=C(C(=O)N2CCCC(N3CCN(c4ccc(F)cc4)CC3)C2)CCC1=O (centres unmarked),5.57%
23,CS(=O)(=O)c1nc(S(=O)(=O)c2ccc(Cl)cc2)c(NCCCN2CCCC2=O)s1,10.8%
24,COc1ccccc1-n1cnc(N)c1C(C)=O,6.83%
25,CC(C)(C)C(=O)NC1(C(F)(F)F)C(=O)Nc2c1c(=O)[nH]c(=O)n2Cc1ccco1 (centres unmarked),12.7%
26,COc1ccc([N+](=O)[O-])cc1/C=N/Nc1nc(N2CCCCC2)nc(N2CCCCC2)n1,9.62%
